We go through 44 compounds from PMC4336329 (PLoS ONE, 2015).

The whole screen tested about 310,000 compounds, of which about 2,200 (0.71%) showed an effect of 50% or more. The effect is printed as a negative number. Some of the results follow.

Sequence of human ether-à-go-go-related gene (hERG) potassium channel (Q12809 whole entry, looked up): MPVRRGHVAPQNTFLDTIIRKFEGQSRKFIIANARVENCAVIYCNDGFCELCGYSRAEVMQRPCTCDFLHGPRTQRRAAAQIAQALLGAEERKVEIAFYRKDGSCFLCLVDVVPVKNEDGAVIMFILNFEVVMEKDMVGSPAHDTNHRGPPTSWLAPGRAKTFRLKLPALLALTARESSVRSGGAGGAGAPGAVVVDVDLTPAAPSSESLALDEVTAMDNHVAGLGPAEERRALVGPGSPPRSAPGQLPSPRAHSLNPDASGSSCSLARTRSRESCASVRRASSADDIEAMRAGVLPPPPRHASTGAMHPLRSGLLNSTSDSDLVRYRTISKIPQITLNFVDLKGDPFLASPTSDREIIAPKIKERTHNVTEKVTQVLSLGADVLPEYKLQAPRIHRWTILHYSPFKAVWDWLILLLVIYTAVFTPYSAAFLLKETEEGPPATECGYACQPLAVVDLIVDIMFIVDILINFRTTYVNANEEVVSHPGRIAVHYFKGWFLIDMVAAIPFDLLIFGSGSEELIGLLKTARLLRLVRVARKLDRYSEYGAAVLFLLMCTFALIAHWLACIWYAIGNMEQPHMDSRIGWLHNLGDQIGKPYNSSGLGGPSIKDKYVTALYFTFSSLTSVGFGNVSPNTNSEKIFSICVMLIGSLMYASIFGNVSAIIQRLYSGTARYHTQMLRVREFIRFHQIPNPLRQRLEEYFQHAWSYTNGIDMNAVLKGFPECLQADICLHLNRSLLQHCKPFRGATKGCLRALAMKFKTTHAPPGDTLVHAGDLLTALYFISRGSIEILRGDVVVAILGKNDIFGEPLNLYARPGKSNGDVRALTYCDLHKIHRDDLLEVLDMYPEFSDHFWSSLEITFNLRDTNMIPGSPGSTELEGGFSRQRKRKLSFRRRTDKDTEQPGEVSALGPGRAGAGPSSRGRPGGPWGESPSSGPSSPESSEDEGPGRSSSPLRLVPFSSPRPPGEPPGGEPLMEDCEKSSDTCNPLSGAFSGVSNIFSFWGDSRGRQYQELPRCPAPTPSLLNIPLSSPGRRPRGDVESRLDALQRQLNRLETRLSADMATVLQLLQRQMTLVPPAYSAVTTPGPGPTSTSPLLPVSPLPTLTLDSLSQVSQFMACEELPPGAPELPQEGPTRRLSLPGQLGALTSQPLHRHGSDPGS

The experiment addresses human ether-à-go-go-related gene (hERG) potassium channel (human, UniProt Q12809). Briefly: primary screen, population patch clamp on CHO cells stably expressing hERG.
With `Cc1ccc(Cn2c(Cc3ccccc3)nc3ccccc32)cc1`, the “hERG current change (%, negative = inhibition) at 1uM” value stood at 1.76%.

In the case of `O=C(CSc1nnc([C@@H]2CCCN2)o1)c1ccc(Cl)cc1`, the “hERG current change (%, negative = inhibition) at 1uM” value is given as -5.24%. As for `CCOc1ccc(CC(=O)OCn2nnc3ccccc3c2=O)cc1`, the “hERG current change (%, negative = inhibition) at 1uM” value was 3.58%. Regarding `COc1ccc(CNC(=O)CCSCc2cccc(Cl)c2)cc1`, the “hERG current change (%, negative = inhibition) at 1uM” value is listed as 2.33%. `O=C(Nc1ccc2c(c1)OCO2)c1ccc(Cl)s1`: the “hERG current change (%, negative = inhibition) at 1uM” value is recorded as 0.696%. As for `O=C(Nc1ccccc1N1CCCCC1)c1ccc(F)cc1`, the “hERG current change (%, negative = inhibition) at 1uM” value is 9.26%. Under `Cn1ncc([N+](=O)[O-])c1C(=O)Nc1nc2ccccc2n1CCN1CCCCC1` stands -10.7%; under `O=c1ccc2ccc(OCc3nnc(-c4ccccc4Br)o3)cc2o1`, 6.11%. For `COc1cc(/C=N/N=C(N)N)ccc1OCc1ccccc1Cl`, the “hERG current change (%, negative = inhibition) at 1uM” value was -11%. In the case of `COc1ccc(CCN2C(=O)CC(NNC(=O)c3ccccc3Br)C2=O)cc1` (centres unmarked) it was -0.79%. `Cc1ccc2[nH]c3c(c2c1)CCN(C)C3`: the “hERG current change (%, negative = inhibition) at 1uM” value was 6.89%.

With `CC(=O)N(c1nnc(-c2ccc(C)cc2)s1)C1CCCC1`, the “hERG current change (%, negative = inhibition) at 1uM” value amounted to 6.29%. In the case of `COc1ccccc1N(C(=O)CNC(=O)c1ccco1)C(C(=O)NC1CCCC1)c1ccco1` (centres unmarked) it was 7.39%. As to `O=C1CCCN1C(=O)COc1ccccc1[N+](=O)[O-]`, the “hERG current change (%, negative = inhibition) at 1uM” value is listed as 11%. For `O=C(Nc1ccc(F)cc1)c1cncs1`, the “hERG current change (%, negative = inhibition) at 1uM” value is given as 3.62%.

As for `COC(=O)c1ccccc1NC(=O)Cn1cnc2c(cnn2-c2ccccc2)c1=O`, the “hERG current change (%, negative = inhibition) at 1uM” value is listed as 6.01%. `Cc1ccc(-c2ccc(=O)n(Cc3ccc(F)cc3Cl)n2)cc1`: the “hERG current change (%, negative = inhibition) at 1uM” value came out at 11.6%.

Regarding `Cc1ccc(Cn2ccc(NC(=O)c3cc(CC(C)C)on3)n2)cc1`, the “hERG current change (%, negative = inhibition) at 1uM” value is recorded as 5.93%. In the case of `CC(=O)Nc1ccc(NC(=O)C(C)OC(=O)c2ccc3ccccc3n2)cc1` (centres unmarked), the “hERG current change (%, negative = inhibition) at 1uM” value was 11.5%. In the case of `CC1(C)Cc2c(c(N3CCOCC3)nc3sc(C(=O)Nc4ccccc4)c(N)c23)CO1`, the “hERG current change (%, negative = inhibition) at 1uM” value was found to be 7.99%. With `O=c1cc(CN2CCN(S(=O)(=O)c3ccc4ccccc4c3)CC2)nc2sccn12`, the “hERG current change (%, negative = inhibition) at 1uM” value is 5.94%. In the case of `Cc1ccc(S(=O)(=O)n2nc(-c3cccnc3)nc2N)cc1`, the “hERG current change (%, negative = inhibition) at 1uM” value stood at 7.94%. Take `NS(=O)(=O)c1ccc(NC(=O)COC(=O)c2cn(-c3ccccc3)nc2-c2ccc(F)cc2)cc1`: the “hERG current change (%, negative = inhibition) at 1uM” value is reported as 4.75%. As to `CCC(C)(C)NC(=O)CN(Cc1cccs1)C(=O)C(=O)Nc1ccc2c(c1)OCCO2`, the “hERG current change (%, negative = inhibition) at 1uM” value turned out to be 5.02%. With `O=C(c1cc2cc(Br)cc(Br)c2oc1=O)N1CCCC1`, the “hERG current change (%, negative = inhibition) at 1uM” value is 3.81%. For `Cc1cccc(COCC(Cc2ccccc2)N2CCN(C(=O)c3cc(Cl)cc(Cl)c3)CCC2=O)c1` (centres unmarked), the “hERG current change (%, negative = inhibition) at 1uM” value is -8.49%. Under `CC1(C)N(O)C2CCCCC2N1O` (centres unmarked) stands 1.72%; under `N/C(=N\OC(=O)/C=C/c1ccccc1)c1ccncc1`, -24.3%. For the compound `Cl.Clc1ccc(CN2CCNCC2)cc1`, the “hERG current change (%, negative = inhibition) at 1uM” value is recorded as 12.3%.

In the case of `O=C(NNS(=O)(=O)c1ccccc1)C(O)(c1ccccc1)c1ccccc1`, the “hERG current change (%, negative = inhibition) at 1uM” value worked out at 17.3%. Take `C/C(=N/NC(=S)Nc1cccc(C)c1)c1cccc([N+](=O)[O-])c1`: the “hERG current change (%, negative = inhibition) at 1uM” value is 10.4%. In the case of `O=S(=O)(c1ccccc1)c1cnc(-c2ccccc2)nc1N1CCCC1`, the “hERG current change (%, negative = inhibition) at 1uM” value is 23.9%. On to `c1ccc2c(C3CCO3)cccc2c1` (centres unmarked), for which the “hERG current change (%, negative = inhibition) at 1uM” value was determined as 9.87%.

Regarding `CCN(CC(=O)Nc1c(F)cccc1F)C(=O)CCC(=O)c1ccc(C)cc1`, the “hERG current change (%, negative = inhibition) at 1uM” value stood at 10.1%. As to `Cc1cccnc1NC(=O)c1cc2c(=O)oc3ccccc3c2s1`, the “hERG current change (%, negative = inhibition) at 1uM” value was determined as 18.2%. Regarding `COCCNC(=O)C(c1ccc(C)o1)N(C(=O)c1snc(C(N)=O)c1N)c1ccc(C)cc1` (centres unmarked), the “hERG current change (%, negative = inhibition) at 1uM” value is on record as -0.564%. Under `CCN(CC)S(=O)(=O)c1ccc(N(C)Cc2cccc(OC)c2OC)nc1` stands 12.6%. In the case of `COc1ccc(NC(=O)C2CCN(c3nc(C)cc(C)n3)CC2)cc1` it was -12.9%; in that of `CC(=O)c1c(C)[nH]c(C(=O)CSc2ncnc3sc(-c4ccccc4)cc23)c1C`, 7.89%; in that of `NC(=O)c1ccc(N=Cc2c(O)n(Cc3ccco3)c(=O)[nH]c2=O)cc1`, -5.15%. With `O=C(N/C(=C/c1ccccc1Cl)C(=O)N1CCCCC1)c1ccco1`, the “hERG current change (%, negative = inhibition) at 1uM” value is 19.8%. Consider `COC(=O)/C=C1\N/C(=N\c2nc(C)cc(C)n2)N(c2ccc(C)cc2)C1=O`, for which the “hERG current change (%, negative = inhibition) at 1uM” value is listed as -9.7%. Take `O=C(c1cc2ccccc2oc1=O)N(Cc1cccc(Br)c1)C1CCS(=O)(=O)C1` (centres unmarked): the “hERG current change (%, negative = inhibition) at 1uM” value is reported as 8.86%. As to `CC(=O)Nc1cccc(-c2nnc3c4ccccc4c(C)nn23)c1`, the “hERG current change (%, negative = inhibition) at 1uM” value was 0.606%.
